Measurements published in PubChem BioAssay AID1671189 (National Center for Advancing Translational Sciences (NCATS), 2021).
In all, about 1,100 compounds went through this assay and about 70 (6%) were called active. Not shown: some 22% with an inconclusive outcome. The call rests on the fitted dose curve; in most records, active means well fitted curve in the direction sought with a large enough effect; inconclusive means small, poorly fitted or top-dose-only effect, or another doubt; inactive means no such curve, though single readings can be large or run the other way. The list shows a part of the results.

target: Polyunsaturated fatty acid lipoxygenase ALOX12 (Homo sapiens) (UniProt P18054); experiment: Confirmatory qHTS assay for inhibitors of human arachidonate 12S-lipoxygenase (ALOX12): Round 2; conditions: purified human 12-LOX, xylenol orange absorbance; series mostly up to 125 µM; activity change, negative = inhibition: at the top concentration
Summary of the method: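 Purified human enzyme (150 nM) in 25 mM Hepes, 0.01% Triton X-100, pH 7.0, preincubated 15 min with compound, then 40 uM arachidonic acid for 30 min at room temperature. Hydroperoxide detected by Fe-XO, read as 573/405 nm absorbance ratio.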
On the % scale 0 is the no-effect control and ±100 the full control effect; potency means the concentration at half of the fitted maximal effect.

UniProt P18054, sequence (P18054 whole entry, looked up): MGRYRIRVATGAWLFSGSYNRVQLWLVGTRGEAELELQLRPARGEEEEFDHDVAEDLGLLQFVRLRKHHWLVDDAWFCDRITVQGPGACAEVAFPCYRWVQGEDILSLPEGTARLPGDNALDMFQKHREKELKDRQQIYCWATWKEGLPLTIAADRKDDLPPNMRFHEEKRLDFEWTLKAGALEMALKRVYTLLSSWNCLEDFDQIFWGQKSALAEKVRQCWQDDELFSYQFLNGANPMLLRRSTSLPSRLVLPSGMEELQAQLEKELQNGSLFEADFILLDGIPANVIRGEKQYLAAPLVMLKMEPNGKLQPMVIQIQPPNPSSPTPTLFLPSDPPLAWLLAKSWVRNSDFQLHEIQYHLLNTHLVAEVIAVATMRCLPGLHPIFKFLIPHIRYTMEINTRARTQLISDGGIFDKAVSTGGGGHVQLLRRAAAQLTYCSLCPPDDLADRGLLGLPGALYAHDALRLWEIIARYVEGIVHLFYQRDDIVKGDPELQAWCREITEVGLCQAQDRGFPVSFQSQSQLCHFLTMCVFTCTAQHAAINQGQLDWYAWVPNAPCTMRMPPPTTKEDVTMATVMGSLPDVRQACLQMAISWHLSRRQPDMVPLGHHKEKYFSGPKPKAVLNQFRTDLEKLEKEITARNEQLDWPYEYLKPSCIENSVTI

| Compound | activity change, negative = inhibition | Potency |
| --- | --- | --- |
| CCOc1ccc(CN2CCC3(Cc4ccccc4CNC3=O)C2)cc1 (stereo not drawn) | inactive: -18.2% |  |
| NCc1cccc(-c2cc(C(F)(F)F)ccc2Cl)c1 | inactive: -40.7% |  |
| Clc1ccc(NCCN2CCCC2)cc1 |  | active: 90.2 µM |
| O=C(N1CCOCC1)N1CCn2c(nnc2C2CCNCC2)C1 | inactive: -20.9% |  |
| CC(NC(=O)C1CCN(c2cc(C(F)(F)F)ncn2)CC1)c1ccccc1 (stereo not drawn) | inactive: 5.14% [at 64.5 µM] |  |
| O=c1n(-c2cccc(Cl)c2)nc2n1CCN([S+](=O)([O-])c1cccs1)C2 | inactive: -15.3% |  |
| CN1CC(=O)N(C2CCCNCC2)Cc2c(NCCCO)ncnc21 (stereo not drawn) | inactive: -12.6% |  |
| COc1ccc(N(C)C2CN(C(=O)OC(C)(C)C)C2)cc1 | inactive: -20.7% |  |
| C[S+](=O)([O-])N1Cc2ccccc2OC2(CCN(C(=O)c3ccc(N)nc3)CC2)C1 | inactive: -11.4% |  |
| CN(Cc1nc(-c2ccncc2)no1)C1CCC2(CCNCC2)CC1 | inactive: -2.66% [at 64.5 µM] |  |
| CCNc1ncnc2c1CN(C1CCNC1)C(=O)CN2C (stereo not drawn) | inactive: -2.88% |  |
| CCc1ccc(CN2CCC3(Cc4ccccc4CNC3=O)C2)s1 (stereo not drawn) | inactive: -26% |  |
| COc1cccc([S+](=O)([O-])N2CC(Oc3ccc(F)c(F)c3)C2)c1 | inactive: -5.6% |  |
| COc1ccccc1C(=O)N1CCC(N2Cc3ccccc3C2=O)CC1 | inactive: 0.0305% |  |
| COc1cccc(CNc2ccc([S+](=O)([O-])Nc3cc4ccccc4s3)cc2)c1O |  | active: 19.3 µM |
| Cc1o[nH]c(=O)c1CC[C@H](N)C(=O)O | inactive: -7.5% |  |
| N#Cc1ccccc1CN1CCCC12Cc1ccccc1CNC2=O (stereo not drawn) | inactive: -18.1% |  |
| COc1cccc(N2C(=O)NC(=NC3CCCC3)C23CCN(CC2CC2)C3)c1 (stereo not drawn) | inactive: -10.4% |  |
| O=C(c1cc(C2CC2)nc2onc(C3CCCNC3)c12)N1CCC(F)CC1 (stereo not drawn) | inactive: -10.1% |  |
| O=C(NCc1cccc(F)c1)c1nc2c(o1)CCN(Cc1cc(F)ccc1F)CC2 | inactive: 6.15% [at 64.5 µM] |  |
| NCc1ccc(-c2cccc(O)c2)cc1 | inactive: -27.6% |  |
| COCc1cc(C[C@@H]2CC[C@H](O)[C@@H](CNC(=O)NC(C)C)O2)no1 | inactive: -10.6% [at 64.5 µM] |  |
| CCN(CC)CC(C)NC (stereo not drawn) | inactive: -15.1% [at 343 µM] |  |
| C=C(CC)CN1CCCC12Cc1ccccc1CNC2=O (stereo not drawn) | inactive: -17.9% |  |
| Fc1ccc(OC2CN(Cc3ccc(C(F)(F)F)cc3)C2)cc1F | inactive: -5.08% |  |

| Compound | activity change, negative = inhibition | Potency |
| --- | --- | --- |
| O=C(O)CCCC(=O)N1Cc2ccccc2CC2(CCCN(Cc3ccccn3)C2)C1 (stereo not drawn) | inactive: 7.02% |  |
| CCOCCCNc1ncnc2c1CN(C1CCNC1)C(=O)CN2C (stereo not drawn) | inactive: -19% |  |
| CNCCN1C(=O)CC[C@H]2CN(C(=O)c3ccc(Cl)cn3)CC[C@H]21 | inactive: -6.14% [at 64.5 µM] |  |
| Cc1cccc(N2Cc3c(NCCCOC(C)C)ncnc3N(C)CC2=O)c1 | inactive: -16% |  |
| Cc1nc(NCCN2CCC(O)CC2)cc(C2CC(O)C2)n1 (stereo not drawn) | inactive: -1.5% [at 64.5 µM] |  |
| Cc1oc(-c2cccs2)nc1CN1CCCC(c2ccn[nH]2)C1 (stereo not drawn) | inactive: 14.1% [at 64.5 µM] |  |
| O=C(c1ccccc1)N1CCCC2(CC(c3cccnc3)=NO2)C1 (stereo not drawn) | inactive: -22.1% |  |
| CNCc1ccccc1OC(F)(F)F | inactive: -3.02% |  |
| NCc1ccccc1-c1cc(C(F)(F)F)ccc1Cl | inactive: -6.19% |  |
| CC1=C[C@@H](CNCC(C)C)[C@H](C(C)C)C[C@H]1Cc1nc2c(C)cccc2[nH]1 | inactive: -7.69% [at 64.5 µM] |  |
| CCC(CO)Nc1ncnc2c1CN(C1CCCNC1)C(=O)CN2C (stereo not drawn) | inactive: -19% |  |
| O=C(c1cc(C2CC2)nc2c1c(C1CCCN1)nn2-c1ccccc1)N1CCOCC1 (stereo not drawn) | inactive: 0.239% |  |
| O=Cc1cccc(N2CCN(C(=O)c3ccncc3)CC2=O)c1 | inactive: -7.29% |  |
| OC1(CNc2cc(C(F)(F)F)nc(N3CCCC3)n2)CCCNCC1 (stereo not drawn) | inactive: 0.216% [at 64.5 µM] |  |
| CC(C)NCCN1CCCC1 | inactive: -4.79% [at 343 µM] |  |
| Fc1ccc(-c2cnc3n2C[C@H](CNCc2ccccc2Cl)OC3)cc1 | inactive: -13.5% [at 64.5 µM] |  |
| Cc1ccccc1Nc1n[nH]c(C(O)c2ccc3c(c2)CCO3)n1 (stereo not drawn) | inactive: 16.1% [at 64.5 µM] |  |
| O=C1NCc2ccccc2CC12CCCN(CCCc1ccccc1)C2 (stereo not drawn) | inactive: -17.1% |  |
| NCc1cccc(-c2ccc(F)cc2F)c1 | inactive: -12.5% |  |
| CC[C@@H](Nc1ncnc2c1CN(C1CCCNCC1)C(=O)CN2C)c1ccccc1 (stereo partly drawn) | inactive: -3.89% |  |
| CC(C)C(=O)N1CCCC2(Cc3ccccc3CN2[S+](=O)([O-])c2ccccc2)C1 (stereo not drawn) | inactive: -28.5% |  |
| CCOC(=O)C1CC1CN1CCCC2(Cc3ccccc3CNC2=O)C1 (stereo not drawn) | inactive: -27.1% |  |
| COc1ccc(OC2CN(Cc3cccc4ccccc34)C2)cc1 | inactive: -3.44% |  |
| COc1ccc(F)cc1-c1ccccc1C=O | inactive: -11.1% |  |
| COc1ccc(CN2CC[C@H](c3nnc(-c4ccccc4)o3)C2)cc1 | inactive: 5.7% [at 64.5 µM] |  |

| Compound | activity change, negative = inhibition | Potency |
| --- | --- | --- |
| O=C(Nc1ccccc1)N1CCC(c2nnc3n2CCNC3)CC1 | inactive: -23.8% |  |
| O=C(c1cc(C2CC2)nc2onc(C3CCCN3)c12)N1CCOCC1 (stereo not drawn) | inactive: -10.3% |  |
| Cc1ccc(-c2cc(N3CCC(CNC(=O)c4ccc5nc[nH]c5c4)CC3)n[nH]2)cc1 | inactive: 1.03% [at 64.5 µM] |  |
| O=C(NC1CCCC1)c1cc(C2CC2)nc2onc(C3CCCN3)c12 (stereo not drawn) | inactive: 0.298% |  |
| CN1CC(=O)N(C2CCNCC2)Cc2c1ncnc2N(C)Cc1ccc(F)cc1 | inactive: -28.3% |  |
| COc1ccccc1CNc1ncnc2c1CN(C1CCCNC1)C(=O)CN2C (stereo not drawn) | inactive: -14.6% |  |
| CCc1nc2c(c(-c3ccc(OC)cc3)n1)CN([S+](=O)([O-])c1c(C)noc1C)CC2 | inactive: -26.9% |  |
| COCC(=O)N1CCN(C)CC1C(=O)N1CCc2nc[nH]c2C1 (stereo not drawn) | inactive: 14.9% [at 64.5 µM] |  |
| NCc1cccc(-c2ccsc2)c1 | inactive: -8.06% |  |
| COc1ccccc1-c1cccc(CN)c1 | inactive: 20.5% [at 233 µM] |  |
| CN1CC(=O)N(C2CCCNC2)Cc2c(NCCCc3ccccc3)ncnc21 (stereo not drawn) | inactive: -23.2% |  |
| CC(=O)NCC(=O)N1Cc2ccccc2CC2(CCCN(CC3CCNC3)C2)C1 (stereo not drawn) | inactive: -9.94% |  |
| CCc1ccc(CN2CCC3(CC2)Cc2ccccc2CNC3=O)s1 | inactive: -18.4% |  |
| CN1CC(=O)N(C2CCCNC2)Cc2c1ncnc2N1CCSCC1 (stereo not drawn) | inactive: -0.186% |  |
| COc1ccc(-c2cc(C(=O)NC3CC3)c3c(C)nn(-c4ccccc4)c3n2)cc1 | inactive: -19.6% |  |
| CNCc1ccncc1 | inactive: -12% [at 233 µM] |  |
| Cc1ccc2nc(NC(=O)C3CC(=O)N(c4n[nH]c5cccc(F)c45)C3)sc2c1 (stereo not drawn) | inactive: -20% [at 64.5 µM] |  |
| Cn1cnc(C(=O)N2[C@@H]3CC[C@H]2CC(NC(=O)c2ccncc2)C3)c1 (stereo partly drawn) | inactive: 14% [at 64.5 µM] |  |
| Fc1ccc(C2Cn3nnc(-c4nc(-c5ccc(F)c(F)c5)no4)c3CO2)cc1 (stereo not drawn) | inactive: 2.23% [at 64.5 µM] |  |
| O=C1NC2(Cc3ccccc31)CN(C(=O)c1ccc3c(c1)OCO3)C2 | inactive: -19.5% |  |
| OCC1CN(c2ncccn2)CC12CCN(Cc1cccc3[nH]ccc13)CC2 (stereo not drawn) | inactive: -5.1% [at 64.5 µM] |  |
| Cc1nc(-c2cccc(NC(=O)N[C@H](C)c3onc(C)c3C(=O)O)c2)no1 | inactive: -5.34% [at 64.5 µM] |  |
| COCc1cn(C[C@H]2C[C@@H](NC(=O)Nc3cccnc3)[C@H](O)[C@@H]2O)nn1 | inactive: -8.27% [at 64.5 µM] |  |
